Experimental data: a collection of fitness landscapes (doi:10.1126/science.1257360)
The list shows a part of the results.

B1: PhoQ; a variant is named by its letters at X, in order, P23837 (parent)
chain: MKKLLRLFFPLSLRVRFLLATAAVVLVLSLAYGMVALIGYSVSFDKTTFRLLRGESNLFYTLAKWENNKLHVELPENIDKQSPTMTLIYDENGQLLWAQRDVPWLMKMIQPDWLKSNGFHEIEADVNDTSLLLSGDHSIQQQLQEVREDDDDAEMTHSVAVNVYPATSRMPKLTIVVVDTIPVELKSSYMVWSWFIYVLSANLLLVIPLLWVAAWWSLRPIEALAKEVRELEEHNRELLNPATTRELTSLVRNLNRLLKSERERYDKYRTTLTDLTHSLKTPLXXLQXXLRSLRSEKMSVSDAEPVMLEQISRISQQIGYYLHRASMRGGTLLSRELHPVAPLLDNLTSALNKVYQRKGVNISLDISPEISFVGEQNDFVEVMGNVLDNACKYCLEFVEISARQTDEHLYIVVEDDGPGIPLSKREVIFDRGQRVDTLRPGQGVGLAVAREITEQYEGKIVAGESMLGGARMEVIFGRQHSAPKDE

Variants of: B1
Experiment: enrichment ratio after two sorts for PhoP signalling (ratio (wild type AVST 3.29)); higher = more functional
Details: with PhoP (E. coli)

Variant | enrichment ratio
PMNF | ≤ 0.25
QYPV | ≤ 0.25
EPYT | ≤ 0.25
LWIL | ≤ 0.25
TWCM | ≤ 0.25
FKML | ≤ 0.25
NDQD | ≤ 0.25
KQLH | ≤ 0.25
ARCF | ≤ 0.25
PSMG | ≤ 0.25
SRYR | ≤ 0.25
WLSD | ≤ 0.25
HRNT | ≤ 0.25
SVLS | 4.64
PFVR | ≤ 0.25
MPIM | ≤ 0.25
GKIS | ≤ 0.25
MNTM | 18.9
WWTR | ≤ 0.25
TNCI | ≤ 0.25
KYSC | ≤ 0.25
MEAS | 3.94
MAHS | ≤ 0.25
APHK | ≤ 0.25

Variant | enrichment ratio
WFKC | ≤ 0.25
PAKN | ≤ 0.25
QICK | ≤ 0.25
MHGE | ≤ 0.25
VKCN | ≤ 0.25
GNED | ≤ 0.25
WCMP | ≤ 0.25
WQSQ | ≤ 0.25
GPLG | ≤ 0.25
WFRF | ≤ 0.25
QTKR | ≤ 0.25
TGDR | 0.31
FIDT | ≤ 0.25
QDYT | ≤ 0.25
KNIV | ≤ 0.25
SWAA | ≤ 0.25
WYDN | ≤ 0.25
GAWL | ≤ 0.25
HKSC | ≤ 0.25
DQNG | ≤ 0.25
FTCR | ≤ 0.25
AEAW | ≤ 0.25
GPRY | ≤ 0.25
KSTW | ≤ 0.25

Variant | enrichment ratio
NREV | ≤ 0.25
ACAQ | ≤ 0.25
DNHA | ≤ 0.25
PQSP | ≤ 0.25
TRLK | ≤ 0.25
FEIR | ≤ 0.25
TYID | ≤ 0.25
WNMR | ≤ 0.25
LGPW | ≤ 0.25
QDMR | ≤ 0.25
WRGM | ≤ 0.25
NTYQ | ≤ 0.25
YHMR | ≤ 0.25
HQWN | ≤ 0.25
IFAS | ≤ 0.25
CCSS | ≤ 0.25
NDIT | ≤ 0.25
NVNH | ≤ 0.25
ERSN | ≤ 0.25
GDIM | 10.5
SSCV | 18.4
NTPE | ≤ 0.25
KIQR | ≤ 0.25
LSLG | 1.47

Variant | enrichment ratio
YLLS | 1.31
ANKF | ≤ 0.25
ASHE | ≤ 0.25
DIID | ≤ 0.25
GPDL | ≤ 0.25
FAYV | ≤ 0.25
QMLW | ≤ 0.25
MYCP | ≤ 0.25
PHAC | ≤ 0.25
ICDM | ≤ 0.25
LKNH | ≤ 0.25
EHQD | ≤ 0.25
CYFR | ≤ 0.25
CGTL | ≤ 0.25
NRTC | ≤ 0.25
YPRK | ≤ 0.25
LHNV | ≤ 0.25
PDMP | ≤ 0.25
DDGA | ≤ 0.25
ECRW | ≤ 0.25
DTGG | ≤ 0.25
DVMT | ≤ 0.25
MQTV | 3.21
GSMY | 3.19

Variant | enrichment ratio
YPAF | ≤ 0.25
GMRW | ≤ 0.25
SCSF | 9.85
FGSA | ≤ 0.25
FERD | ≤ 0.25
QKAR | ≤ 0.25
KHIH | ≤ 0.25
LYGE | ≤ 0.25
WKDT | ≤ 0.25
WEEA | ≤ 0.25
PKHQ | ≤ 0.25
DHML | ≤ 0.25
YFRW | ≤ 0.25
NERD | ≤ 0.25
DWTW | ≤ 0.25
NDNI | ≤ 0.25
KLHS | ≤ 0.25
YNCC | ≤ 0.25
YMHW | ≤ 0.25
VRSC | ≤ 0.25
PMCM | ≤ 0.25
GQPI | ≤ 0.25
KCIS | ≤ 0.25
PGAM | ≤ 0.25

Variant | enrichment ratio
GIDG | ≤ 0.25
SPVE | ≤ 0.25
QTCH | ≤ 0.25
NIYW | ≤ 0.25
IYLY | ≤ 0.25
VLMI | ≤ 0.25
SIRP | 0.347
YTHR | ≤ 0.25
LWED | ≤ 0.25
VACR | ≤ 0.25
SWYT | ≤ 0.25
SCYH | ≤ 0.25
IWQQ | ≤ 0.25
INFT | ≤ 0.25
MYHY | ≤ 0.25
TCWY | ≤ 0.25
IFCA | ≤ 0.25
MSWH | 0.619
ETCL | ≤ 0.25
WKEW | ≤ 0.25
FPCF | ≤ 0.25
SQKM | ≤ 0.25
MQSR | ≤ 0.25
MFDT | ≤ 0.25

Variant | enrichment ratio
ANNS | 12.9
MENI | ≤ 0.25
LTHE | ≤ 0.25
AESQ | 4.68
ENLR | ≤ 0.25
AHYC | ≤ 0.25
LRTW | ≤ 0.25
QDGE | ≤ 0.25
IRMH | ≤ 0.25
IQVQ | ≤ 0.25
PNQF | 1.11
WRPA | ≤ 0.25
TPQS | ≤ 0.25
FYCS | ≤ 0.25
FMMM | 0.302
DHNE | ≤ 0.25
RADN | ≤ 0.25
TKHI | ≤ 0.25
HVNF | ≤ 0.25
FRQL | ≤ 0.25
QKPW | ≤ 0.25
RYLN | ≤ 0.25
DAQP | ≤ 0.25
SAHC | ≤ 0.25

Variant | enrichment ratio
RCEL | ≤ 0.25
DTRC | ≤ 0.25
LQSP | ≤ 0.25
FNFT | ≤ 0.25
PMAY | ≤ 0.25
PYWC | ≤ 0.25
SNTA | 2.79
AEWR | ≤ 0.25
PSFE | ≤ 0.25
QDDH | ≤ 0.25
PNRG | ≤ 0.25
DELQ | ≤ 0.25
QYDK | ≤ 0.25
WFNT | ≤ 0.25
FIHR | ≤ 0.25
SEQS | 6.91
WTTF | ≤ 0.25
VAMY | ≤ 0.25
LPMT | ≤ 0.25
EQIH | ≤ 0.25
NHVP | ≤ 0.25
VMNA | ≤ 0.25
DFVV | ≤ 0.25
LAYR | ≤ 0.25

Variant | enrichment ratio
MEYG | 9.72
QAHP | ≤ 0.25
AHYI | ≤ 0.25
YHGV | ≤ 0.25
PLTY | ≤ 0.25
FSWN | ≤ 0.25
VKHV | ≤ 0.25
SYDG | ≤ 0.25
KIQH | ≤ 0.25
SIPH | ≤ 0.25
MSSA | 0.453
TSQH | 8.47
NSMF | ≤ 0.25
INPF | ≤ 0.25
LRCY | ≤ 0.25
WNTL | ≤ 0.25
TFWR | ≤ 0.25
WTKR | ≤ 0.25
RKVP | ≤ 0.25
IVFS | ≤ 0.25
RMRY | ≤ 0.25
KTTH | ≤ 0.25
VEGA | ≤ 0.25
RSCW | ≤ 0.25

Variant | enrichment ratio
EMDD | ≤ 0.25
FAAS | ≤ 0.25
SRYI | ≤ 0.25
SDRQ | ≤ 0.25
HKED | ≤ 0.25
SHRN | ≤ 0.25
WNLM | ≤ 0.25
MITR | ≤ 0.25
IYMW | ≤ 0.25
RVYN | ≤ 0.25
DFRN | ≤ 0.25
VGYH | ≤ 0.25
DVHG | ≤ 0.25
QNGW | ≤ 0.25
HYLI | ≤ 0.25
FLFF | ≤ 0.25
TQFP | ≤ 0.25
ISFL | ≤ 0.25
TELT | 14.5
YAAS | ≤ 0.25
EIWH | ≤ 0.25
DFWH | ≤ 0.25
TVQG | 14.6
EYTV | ≤ 0.25

Variant | enrichment ratio
WSTA | ≤ 0.25
QAWS | 18.4
DGYT | ≤ 0.25
ISHS | ≤ 0.25
MRPN | ≤ 0.25
HRFV | ≤ 0.25
VCPS | ≤ 0.25
APAS | ≤ 0.25
ITVT | ≤ 0.25
FQCG | 1.7
WSFG | ≤ 0.25
GLLG | 3.41
WMVL | ≤ 0.25
LATI | ≤ 0.25
LEHG | ≤ 0.25
IHFT | ≤ 0.25
TSSD | ≤ 0.25
LANQ | ≤ 0.25
GVTS | ≤ 0.25
FNEY | ≤ 0.25
LMRA | ≤ 0.25
REYY | ≤ 0.25
SSIG | 11.5
QPYC | ≤ 0.25

Variant | enrichment ratio
FAQF | ≤ 0.25
KRID | ≤ 0.25
PQMK | ≤ 0.25
QVRM | ≤ 0.25
KLWH | ≤ 0.25
LQMP | ≤ 0.25
SYDA | ≤ 0.25
PEGW | ≤ 0.25
YSRG | ≤ 0.25
VHTG | ≤ 0.25
ENKH | ≤ 0.25
ELDT | ≤ 0.25
WRPP | ≤ 0.25
TDQE | ≤ 0.25
WTRK | ≤ 0.25
WRHD | ≤ 0.25
HGSC | ≤ 0.25
YFCC | ≤ 0.25
DMDN | ≤ 0.25
NTCN | ≤ 0.25
IWAP | ≤ 0.25
VQMY | ≤ 0.25
WCQS | ≤ 0.25
MGAW | ≤ 0.25

Variant | enrichment ratio
NEVY | ≤ 0.25
YHEA | ≤ 0.25
STCV | 6.12
ASPF | 0.281
MHHW | ≤ 0.25
KKAT | ≤ 0.25
YHIE | ≤ 0.25
IGTN | ≤ 0.25
YTQS | ≤ 0.25
ACTF | 7.93
LCVM | ≤ 0.25
HEEF | ≤ 0.25
MADW | ≤ 0.25
QMLE | ≤ 0.25
SHPD | ≤ 0.25
GTCN | 3.53
WSRT | ≤ 0.25
SWYI | ≤ 0.25
